# Residue numbers refer to the chain shown, from its start. Some of the results follow.
# B1: AAGCCAA (DNA:RNA)
# RNA: GGGAGACCGGAAUUCAGAUUGUCCAAGCCAAUUAAAUCCCGUCGUAGCCACCA
# DNA 1: CAATCTGAATTCCGGTCTCCC
# DNA 2: TGGTGGCTACGACGGGATT
# B2: UGAGUGU (DNA:RNA)
# RNA: GGGAGACCGGAAUUCAGAUUGUCCUGAGUGUUUAAAUCCCGUCGUAGCCACCA
# DNA 1: CAATCTGAATTCCGGTCTCCC
# DNA 2: TGGTGGCTACGACGGGATT
# B3: GGAACAU (DNA:RNA)
# RNA: B2 RNA with U25G, G28A, U29C, G30A
# DNA 1: CAATCTGAATTCCGGTCTCCC
# DNA 2: TGGTGGCTACGACGGGATT
# B4: CCUCAAU (DNA:RNA)
# RNA: B1 RNA with A25C, A26C, G27U, C29A, A31U
# DNA 1: CAATCTGAATTCCGGTCTCCC
# DNA 2: TGGTGGCTACGACGGGATT
# B5: CCUAGUA (DNA:RNA)
# RNA: B1 RNA with A25C, A26C, G27U, C28A, C29G, A30U
# DNA 1: CAATCTGAATTCCGGTCTCCC
# DNA 2: TGGTGGCTACGACGGGATT
# B6: AUCAUUA (DNA:RNA)
# RNA: B1 RNA with A26U, G27C, C28A, C29U, A30U
# DNA 1: CAATCTGAATTCCGGTCTCCC
# DNA 2: TGGTGGCTACGACGGGATT
# B7: CGUCGGC (DNA:RNA)
# RNA: B2 RNA with U25C, A27U, G28C, U29G, U31C
# DNA 1: CAATCTGAATTCCGGTCTCCC
# DNA 2: TGGTGGCTACGACGGGATT
# B8: CAGAGGU (DNA:RNA)
# RNA: B1 RNA with A25C, C28A, C29G, A30G, A31U
# DNA 1: CAATCTGAATTCCGGTCTCCC
# DNA 2: TGGTGGCTACGACGGGATT
# B9: AGGAUGC (DNA:RNA)
# RNA: B2 RNA with U25A, A27G, G28A, U31C
# DNA 1: CAATCTGAATTCCGGTCTCCC
# DNA 2: TGGTGGCTACGACGGGATT
# Target: T1, RBFOX1 RRM RbFoxmut (Fox-RRM*) (Homo sapiens, UniProt Q9NWB1 109-208, R118D;E147R;N151S;E152T)
# T1 sequence: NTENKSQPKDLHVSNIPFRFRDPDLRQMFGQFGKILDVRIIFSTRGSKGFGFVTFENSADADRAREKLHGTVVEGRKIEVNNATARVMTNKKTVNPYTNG
# Experiment: EMSA; HiTS-Eq, 1 nM pool, 10 min; buffer printed only for the single-RNA assays: 10 mM Tris pH 7.5, 150 mM NaCl, 3.4 mM EDTA, 0.001% NP-40, 30 C
# Conditions: tags: His6 N-terminal (pET28a); label: 5' 32P
# How it was run: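 Purified wild-type or mutant RbFox RRM at increasing concentrations was equilibrated with 1 nM of 5′-radiolabelled RNA carrying 7 randomized nucleotides for 10 min in 50 µL. Unbound RNA was separated by 8% native PAGE and sequenced. Relative association constants came from read-count changes of each RNA species compared with the control reaction, normalised to the cognate motif.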
row,Binder,binding signal
1,B1,0.0827 KA relative to UGCAUGU
2,B2,0.175 KA relative to UGCAUGU
3,B3,0.0858 KA relative to UGCAUGU
4,B4,0.0549 KA relative to UGCAUGU
5,B5,0.128 KA relative to UGCAUGU
6,B6,0.154 KA relative to UGCAUGU
7,B7,0.118 KA relative to UGCAUGU
8,B8,0.113 KA relative to UGCAUGU
9,B9,0.203 KA relative to UGCAUGU
